Data set [1] has as its target T1, Human GLP-1R (Homo sapiens, UniProt P43220).
T1 construct: expressed in transfected cells; host or cells: HEK-293
In words: HTRF cAMP assay in HEK-293 cells, human GLP-1R. The format is cell-based. The protocol: (§1) Recombinant HEK-293 cells were grown in T175 culture flasks placed at 37° C. to near confluence in medium (DMEM with 10% FBS) and collected in 2 mL vials in cell culture medium containing 10% DMSO in concentrations of 1-5×10^7 cells/mL. Each vial contained 1.8 mL cell suspension. The vials were slowly frozen to −80° C. in an isopropanol chamber, and then transferred to liquid nitrogen for long term storage.
(§2) Prior to their use, frozen cells were thawed quickly at 37° C., washed with 20 mL cell buffer (1×HBSS; 20 mM HEPES, 0.1% BSA) and centrifuged for 5 minutes at 900 rpm. Cells were resuspended in assay buffer (cell buffer plus 2 mM IBMX) and adjusted to a cell density of 1×10^6 cells/mL. For measurement, 5 μL cell suspension (final 5×10^3 cells/well) and 5 μL of test compound were added to a well of a 384-well plate, followed by incubation for 30 minutes at room temperature. […] The cAMP content of cells was determined using a kit from Cisbio Corp. (cat. no. 62AM4PEC) based on Homogenous Time Resolved Fluorescence (HTRF).
On the technique in general: Time-resolved FRET reads energy transfer from a long-lived donor to a nearby acceptor.

Data set [2] can be described thus: Conformational and thermal stability on UNit (intrinsic fluorescence and static light scattering). The format is physicochemical. The following applies: 5 mg/mL in phosphate buffer pH 7.4; for Tagg (aggregation onset temperature): UNit SLS 266 nm; for Tm (melting temperature): UNit. The protocol:
Conformational stability and propensity to aggregate was determined simultaneously for the GLP-1RA/FGF21 Fc fusion proteins using a UNit (Unchained Labs, Calif., USA). The UNit combines the analysis of intrinsic fluorescence of a protein or polypeptide to detect unfolding of the protein or polypeptide and a Static Light Scattering (SLS) measurement in order to investigate aggregation behavior.
Data were acquired for the fusion proteins at a concentration of 5 mg/mL formulated in phosphate buffer at pH 7.4. A volume of 9 μL of each sample were loaded into a UNi capillary holder and analyzed in triplicate on the UNit. The temperature was increased from 20 to 95° C. at a constant linear rate of 0.3° C./minutes. The BaryCentric Mean (BCM) indicating the intrinsic fluorescence and SLS signals detected with a 266 nm laser were plotted against the applied temperature in order to obtain melting temperatures (Tm) and aggregation onset temperatures (Tagg). Data were analyzed using the UNit Analysis software v.

In data set [3] the target is T2, Mouse GLP-1R (Mus musculus, UniProt O35659).
T2 construct: expressed in transfected cells; host or cells: HEK-293
T2 sequence (O35659 22-463): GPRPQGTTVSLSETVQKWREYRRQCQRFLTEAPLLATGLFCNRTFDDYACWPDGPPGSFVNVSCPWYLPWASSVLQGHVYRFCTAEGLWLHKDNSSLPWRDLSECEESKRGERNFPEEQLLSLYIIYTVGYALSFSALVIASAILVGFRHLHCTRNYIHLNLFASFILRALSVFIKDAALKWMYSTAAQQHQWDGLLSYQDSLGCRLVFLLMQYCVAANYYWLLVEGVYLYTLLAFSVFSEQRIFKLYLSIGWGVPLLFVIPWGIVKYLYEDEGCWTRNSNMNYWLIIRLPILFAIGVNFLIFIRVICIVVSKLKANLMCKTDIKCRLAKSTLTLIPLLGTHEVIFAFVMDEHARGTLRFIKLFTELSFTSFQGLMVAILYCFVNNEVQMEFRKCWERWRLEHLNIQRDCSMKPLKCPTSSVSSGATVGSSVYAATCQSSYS
In words: HTRF cAMP assay in HEK-293 cells, mouse GLP-1R. Format: cell-based. As to the method: as §1, §2

Data set [4] concerns the target T3, Monkey GLP-1R (Macaca fascicularis, UniProt F8V479).
T3 construct: expressed in transfected cells; host or cells: HEK-293
In words: HTRF cAMP assay in HEK-293 cells, monkey GLP-1R. Format: cell-based. The protocol: as §1, §2

Data set [5] in a line: Pharmacokinetics after single subcutaneous administration in mouse. The conditions noted are these: 0.3 mg/kg subcutaneous. Format: in vivo, female C57BI/6 mice. The protocol: (§3) Plasma concentrations and pharmacokinetic parameters of GLP-1 RA/FGF21 Fc fusion proteins were determined after single subcutaneous administration of 0.3 mg/kg in solution to female C57BI/6 mice or male Cynomolgus monkeys using three different methods. Blood samples were obtained at time points from 30 minutes to 168 hours after dosing. […]
(§4) a.) Bioanalytical Screening Method for Quantification of the Intact FGF21 Part of the GLP-1 RA/FGF21 Fc Fusion Proteins Plasma samples were analyzed for the intact FGF21 part of the fusion proteins with an ELISA kit (F1231-K01, Eagle Biosciences, USA). The assay utilized the two-site sandwich technique with two selected antibodies that bound to different epitopes of human intact FGF21. One of the antibodies specifically bounds to the N-terminal amino acids (aa) 29-35 of human FGF21 and the other antibody specifically bound to the C-terminus (aa 203-209) of human FGF21. Assay standards, controls and unknown samples were added directly to wells of microplate that is coated with an anti-human FGF21 (aa 29-35)-specific antibody. Simultaneously, a horseradish peroxidase conjugated anti-human FGF21 (aa 203-209)-specific antibody was added to each well. After the first incubation period, the antibody on the walls of microtiter wells captured human FGF21 in the sample and unbound protein in each microtiter well is washed away. […] For the detection of this immunocomplex, the well was then incubated with a substrate solution in a timed reaction and then measured in a spectrophotometric microplate reader. […]
(§5) b.) Bioanalytical Screening Method for Quantification of the Intact Full-Length Fusions Proteins The concentration of the full-length GLP-1RA/FGF21 Fc fusion proteins in plasma were determined utilizing an ELISA method. […] Following washing 3 times with 300 μL PBS-T 150 μL read buffer was added to the wells. […]
(§6) c.) Bioanalytical Screening Method for Quantification of the Intact GLP-1 Part of the GLP-1 FGF21 Fc Fusion Proteins Plasma samples were analyzed for the intact GLP-1 part of the fusion proteins with a GLP-1 ELISA method. […]

Data set [6] in a line: Pharmacokinetics after single subcutaneous administration in non-human primate. The format is in vivo, male Cynomolgus monkeys. The following applies: 0.3 mg/kg subcutaneous. As to the method: as §3, §4, §5, §6

T1 sequence (P43220 24-463): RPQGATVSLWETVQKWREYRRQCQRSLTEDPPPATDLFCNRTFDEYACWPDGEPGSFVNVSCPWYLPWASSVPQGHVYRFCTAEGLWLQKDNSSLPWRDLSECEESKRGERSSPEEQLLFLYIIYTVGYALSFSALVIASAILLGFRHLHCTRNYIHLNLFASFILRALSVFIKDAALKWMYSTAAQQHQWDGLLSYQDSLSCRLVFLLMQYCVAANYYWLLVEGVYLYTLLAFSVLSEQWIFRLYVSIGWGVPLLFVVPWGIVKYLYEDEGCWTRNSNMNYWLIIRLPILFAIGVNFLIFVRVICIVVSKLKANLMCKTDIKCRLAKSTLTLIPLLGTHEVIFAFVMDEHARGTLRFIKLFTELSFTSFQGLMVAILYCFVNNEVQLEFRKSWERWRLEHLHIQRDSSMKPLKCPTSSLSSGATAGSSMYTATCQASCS
T3 sequence (F8V479 24-463): as the sequence (P43220 24-463) above, with S112N, F120S, S202G, L205V, L237F, W241R, I249V counted along it

B1: 2 (protein)
chain: HGEGTFTSDLSKQLEEERVQLFIEWLKATGPSSGAPPPSGGGGGGGSGGGGSGGGGSA[… human IgG1 Fc with changes …]GGGSGSAHPIPDSSPLLQFGGQVRQRYLYTDDACQTEAHLEIREDGTVGGAADQSPESLLQLKALKPGVIQILGVKTSRFLCQRPDGALYGSLHFDPEACSFRELLLEDGYNVYQSEAHGLPLHLPGCKSPHRDPAPRGPARFLPLPGLPPAPPEPPGILAPQPPDVGSSDPLSMVYPSQGRSPSYAS
modifications: Fusion Protein
In general, EC50 refers to the concentration needed to bring the measured effect to its halfway point. Consider B1, for which the results for the EC50 in data set [1], in data set [3] and in data set [4] were 0.194 nM, 0.00293 nM and 0.164 nM, respectively. In addition, in data set [2], the “Tagg (aggregation onset temperature)” value stood at 71.5 °C. Besides, the “Tm (melting temperature)” value in data set [2] is 69.6 °C. The t1/2 mouse in data set [5] (FGF21 intact assay) was found to be 27.6 h; in data set [5] (GLP-1 intact assay) it was 27.8 h; in data set [5] (full-length assay), 16.1 h. Also, the t1/2 monkey in data set [6] (FGF21 intact assay) is listed as 42.5 h; in data set [6] (GLP-1 intact assay), 33.4 h; in data set [6] (full-length assay) it was 23.5 h.

B2: 6 (protein)
chain: HGEGTFTSDLSKQLEEERVQLFIEWLKATGPSSGAPPPSGGGGGGGSGGGGSGGGGSA[… human IgG4 Fc with changes …]GGGSGSAHPIPDSSPLLQFGGQVRQRYLYTDDACQTEAHLEIREDGTVGGAADQSPESLLQLKALKPGVIQILGVKTSRFLCQRPDGALYGSLHFDPEACSFRELLLEDGYNVYQSEAHGLPLHLPGCKSPHRDPAPRGPARFLPLPGLPPAPPEPPGILAPQPPDVGSSDPLSMVYPSQGRSPSYAS
modifications: Fusion Protein
For the molecule B2, the concentration for a half-maximal effect (EC50) stood at 0.383 nM in data set [1], 0.00645 nM in data set [3] and 0.347 nM in data set [4]. Further, the “Tagg (aggregation onset temperature)” value in data set [2] was 63.4 °C. Further, the “Tm (melting temperature)” value in data set [2] amounted to 64.1 °C.

B3: 1 (protein)
chain: HGEGTFTSDLSKQLEEERVQLFIEWLKATGPSSGAPPPSGGGGGGGSGGGGSGGGGSA[… human IgG1 Fc with changes …]GGGSGSAHPIPDSSPLLQFGGQVRQRYLYTDDACQTEAHLEIREDGTVGGAADQSPESLLQLKALKPGVIQILGVKTSRFLCQRPDGALYGSLHFDPEACSFRELLLEDGYNVYQSEAHGLPLHLPGCKSPHRDPAPRGPARFLPLPGLPPAPPEPPGILAPQPPDVGSSDPLSMVGSQGRSPSYAS
modifications: Fusion Protein
As to B3, the concentration for a half-maximal effect (EC50) in data set [1] was 0.219 nM; in data set [3], 0.0028 nM; in data set [4], 0.161 nM. The “Tagg (aggregation onset temperature)” value in data set [2] amounted to 75.5 °C. Also, the “Tm (melting temperature)” value in data set [2] came out at 70.5 °C.

B4: 4 (protein)
chain: HGEGTFTSDLSKQLEEERVQLFIEWLKATGPSSGAPPPSGGGGGGGSGGGGSGGGGSA[… human IgG4 Fc with changes …]GGGSGSAHPIPDSSPLLQFGGQVRQRYLYTDDACQTEAHLEIREDGTVGGAADQSPESLLQLKALKPGVIQILGVKTSRFLCQRPDGALYGSLHFDPEACSFRELLLEDGYNVYQSEAHGLPLHLPGCKSPHRDPAPRGPARFLPLPGLPPAPPEPPGILAPQPPDVGSSDPLSMVGSQGRSPSYAS
modifications: Fusion Protein
B4: the half-maximal effective concentration (EC50) in data set [1] is 0.313 nM; in data set [3] it was 0.00529 nM; in data set [4], 0.262 nM. Moreover, in data set [2], the “Tagg (aggregation onset temperature)” value was 64.0 °C. Further, in data set [2], the “Tm (melting temperature)” value came out at 64.9 °C.

B5: 39 (protein)
chain: HGEGTFTSDLSIQLEEEAVQEFIEWLLATGPSSGAPPPSGGGGGGGSGGGGSGGGGSA[… human IgG1 Fc with changes …]GGGSGSAHPIPDSSPLLQFGGQVRQRYLYTDDACQTEAHLEIREDGTVGGAADQSPESLLQLKALKPGVIQILGVKTSRFLCQRPDGALYGSLHFDPEACSFRELLLEDGYNVYQSEAHGLPLHLPGCKSPHRDPAPRGPARFLPLPGLPPAPPEPPGILAPQPPDVGSSDPLSMVGSQGRSPSYAS
modifications: Fusion Protein
Turning to B5, the 50% effective concentration (EC50) in data set [1] stood at 0.0085 nM; in data set [3], 0.00116 nM; in data set [4] it was 0.0123 nM.
